Out of some 39,000 compounds screened, about 220 (0.56%) showed activity. The list shows a part of the results.
These compounds were tested on Escherichia coli K-12 BW25113 (assay: relative growth (OD600 normalised to plate interquartile mean) (fraction); higher = less growth inhibition, active = 0.2 or less). Settings: 50 µM; LB; incubation time: overnight (16-24 h).
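Further: static incubation at 37 °C against the wild-type strain, values averaged over two biological replicates.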

Compound | relative growth
O=C(O)c1cccnc1Nc1cccc(C(F)(F)F)c1 | inactive: 0.978
C[C@H](CO)N1C[C@H](C)[C@@H](CN(C)Cc2ccc(C(=O)Nc3ccccc3N)cc2)Oc2c(NC(=O)Nc3ccc4c(c3)OCO4)cccc2C1=O | inactive: 1.03
C=C(O)C(=O)O | inactive: 1.03
O=C(C[C@@H]1C=C[C@@H](NC(=O)CN2CCOCC2)[C@@H](CO)O1)NC1CCC1 | inactive: 0.974
CO[C@H](CN(C)S(=O)(=O)c1ccc(F)cc1)[C@H](C)CN([C@H](C)CO)S(=O)(=O)c1cccc(Cl)c1 | inactive: 0.984
CC1CC(OC(=O)C(O)c2ccccc2)CC(C)(C)C1 (configuration not stated) | inactive: 1.09
Cc1ccc(S(=O)(=O)Nc2ccc3c(c2)C(=O)N([C@@H](C)CO)C[C@@H](C)[C@@H](CN(C)Cc2ccc(C(F)(F)F)cc2)OCCCC[C@@H](C)O3)cc1 | inactive: 1.08
Cc1noc(C)c1NC(=O)N(C)C[C@@H]1OCCCC[C@@H](C)Oc2ccc(NC(=O)Nc3ccc4c(c3)OCO4)cc2C(=O)N([C@@H](C)CO)C[C@H]1C | inactive: 1.03
Cc1noc(C)c1NC(=O)N(C)C[C@@H]1Oc2ccc(NC(=O)NC(C)C)cc2CC(=O)N([C@@H](C)CO)C[C@@H]1C | inactive: 0.977
C[C@@H]1CCCCO[C@@H](CN(C)Cc2ccc3c(c2)OCO3)[C@@H](C)CN([C@H](C)CO)C(=O)c2cc(NC(=O)Nc3ccc4c(c3)OCO4)ccc2O1 | inactive: 0.997
Cc1noc(C)c1NC(=O)Nc1cccc2c1O[C@@H](CN(C)C(=O)Nc1ccc(C(F)(F)F)cc1)[C@H](C)CN([C@@H](C)CO)C2=O | inactive: 0.954
COc1cccc(NC(=O)N(C)C[C@H]2Oc3ncc(C#Cc4ccncc4)cc3C(=O)N([C@H](C)CO)C[C@@H]2C)c1 | inactive: 1.01
Cc1cnc(CNC(=O)c2c(=O)c3ccc(N4CCCN(C)CC4)nc3n3c2sc2ccccc23)cn1 | inactive: 1.02
C[C@@H]1CN([C@@H](C)CO)C(=O)c2cc(NC(=O)Cc3ccccc3)ccc2O[C@@H](C)CCCCO[C@H]1CN(C)S(=O)(=O)c1cccs1 | inactive: 1.01
CCS(=O)(=O)Nc1ccc2c(c1)C(=O)N(C)[C@H]1CC[C@@H](CC(=O)N3CCN(C)CC3)O[C@H]1CO2 | inactive: 0.988
COc1ccc2c3c(n(c2c1)C)[C@H](CO)N(Cc1cc(cc(c1)OC)OC)C[C@]13CCN(CC1)S(=O)(=O)c1cn(cn1)C | inactive: 0.99
CCc1nc2c(C)cc(N3CCN(CC(=O)N4CC(O)C4)CC3)cn2c1N(C)c1nc(-c2ccc(F)cc2)c(C#N)s1 | inactive: 0.973
COc1ccc(NC(=O)N(C)C[C@H]2Oc3ccc(NC(=O)Nc4ccc(C(F)(F)F)cc4)cc3C(=O)N([C@H](C)CO)C[C@@H]2C)cc1 | inactive: 1.01
O=C(Nc1ccccc1C(=O)O)c1nnc[nH]1 | inactive: 0.892
C[C@@H](O)CN1C(=S)S[C@@H]2CS(=O)(=O)C[C@@H]21 | inactive: 0.907
COc1ccccc1-c1cnc2c(c1)C(=O)N([C@H](C)CO)C[C@@H](C)[C@H](CN(C)C(=O)c1cccnc1)O2 | inactive: 0.969

Compound | relative growth
C[C@@H]1CCCCO[C@H](CN(C)S(=O)(=O)c2cn(C)cn2)[C@@H](C)CN([C@H](C)CO)C(=O)c2cc(NS(=O)(=O)c3ccccc3)ccc2O1 | inactive: 1.02
O=C(C[C@@H]1CC[C@@H]2[C@H](COC[C@@H](O)CN2S(=O)(=O)c2ccccc2Cl)O1)NCc1ccccc1Cl | inactive: 1.01
COc1ccc(CN(C)C[C@H]2OCCCC[C@@H](C)Oc3ccc(NC(=O)Nc4ccc(F)cc4)cc3C(=O)N([C@H](C)CO)C[C@H]2C)cc1 | inactive: 1.04
CC(C)(C)OC(=O)N1CCNC(=O)C1 | inactive: 1.06
C[C@@H]1CN([C@@H](C)CO)C(=O)c2cccc(NS(=O)(=O)c3ccc(F)cc3)c2O[C@H]1CN(C)S(=O)(=O)c1cccs1 | inactive: 1.01
CCOC(=O)CCC(=O)OC1C(OC2C(C)C(OC3CC(C)(OC)C(O)C(C)O3)C(C)C(=O)OC(CC)C(C)(O)C(O)C(C)C(=O)C(C)CC2(C)O)OC(C)CC1N(C)C (configuration not stated) | inactive: 0.709
C[C@@H]1CN([C@@H](C)CO)C(=O)c2cc(NC(=O)Nc3ccccc3)ccc2O[C@@H](C)CCCCO[C@H]1CN(C)CC1CCCCC1 | inactive: 0.986
COc1ccc(CN(C)C[C@@H]2OCCCC[C@H](C)Oc3ccc(NC(=O)NC(C)C)cc3C(=O)N([C@H](C)CO)C[C@@H]2C)cc1 | inactive: 0.995
CN(C)CC(=O)N[C@H]1C=C[C@H](CC(=O)O)O[C@@H]1CO | inactive: 0.918
C[C@H](CO)N1C[C@H](C)[C@H](CN(C)CC2CCCCC2)OCCCC[C@H](C)Oc2ccc(NC(=O)CCCN(C)C)cc2C1=O | inactive: 0.985
NC(=O)c1ccc(N)cc1N1CCCC1 | inactive: 1.01
COc1cccc(NC(=O)N(C)C[C@@H]2Oc3cc(C#CC4(O)CCCC4)ccc3S(=O)(=O)N([C@@H](C)CO)C[C@H]2C)c1 | inactive: 0.972
C[C@H]1CN([C@@H](C)CO)C(=O)c2cc(C#CCN(C)C)cnc2O[C@@H]1CN(C)S(C)(=O)=O | inactive: 0.996
C1CCN2CC3CC(CN4CCCCC34)C2C1.O=S(=O)(O)O (configuration not stated) | inactive: 1.09
NCC1OC(OC2C(N)CC(N)C(O)C2OC2OC(CO)C(O)C2O)C(N)C(O)C1O.O=S(=O)(O)O (configuration not stated) | inactive: 0.78
CO[C@H]1CN(C)C(=O)c2cc(NS(=O)(=O)CC(F)(F)F)ccc2OC[C@@H](C)N(C(=O)c2ccc3c(c2)OCO3)C[C@H]1C | inactive: 0.979
CNC[C@@H]1CC[C@@H](N)[C@@H](O[C@H]2[C@H](O)[C@@H](O[C@H]3OC[C@](C)(O)[C@H](NC)[C@H]3O)[C@H](N)C[C@@H]2N)O1 | inactive: 0.977
O=P(O)(O)C(Cl)(Cl)P(=O)(O)O | inactive: 1.03
COc1ccc([Si](C)(C)[C@@H]2[C@@H](CCO)O[C@]3(C(=O)N(Cc4ccc(N5C(=O)c6ccccc6Oc6ccccc65)cc4)c4ccccc43)[C@H]2C)cc1 | inactive: 0.906
Cc1cnc(N2C[C@H]3OCCN(S(=O)(=O)N(C)C)[C@H]3C2)nc1 | inactive: 0.995
C[C@@H]1CCCCO[C@@H](CN(C)S(=O)(=O)c2ccc(F)cc2)[C@H](C)CN([C@H](C)CO)C(=O)c2cc(NS(=O)(=O)c3ccc(Cl)cc3)ccc2O1 | inactive: 1.03

Compound | relative growth
O=c1ccc2ccc(O)cc2o1 | inactive: 1.02
CO[C@@H]1CN(C)C(=O)c2cc(NS(=O)(=O)CC(F)(F)F)ccc2OC[C@@H](C)N(Cc2ccccn2)C[C@@H]1C | inactive: 1.02
C[C@@H]1CN([C@@H](C)CO)C(=O)c2cc(C#CCc3ccccc3)cnc2O[C@@H]1CN(C)C(=O)Cc1cccnc1 | inactive: 0.993
C[C@H](CO)N1C[C@H](C)[C@H](CN(C)C(=O)c2cnccn2)Oc2ncc(-c3cccc(C#N)c3)cc2C1=O | inactive: 1.02
O=C([O-])C=CC(=O)[O-].[Fe+2] | inactive: 1.04
Cc1ccccc1[C@@H](c1ncccc1C)N(C)C(=O)C1CCN(CCOc2ccc(Cl)cc2Cl)CC1 | inactive: 1.01
COc1ccc(S(=O)(=O)Nc2cccc3c2O[C@H](CN(C)Cc2ccncc2)[C@@H](C)CN([C@@H](C)CO)C3=O)cc1 | inactive: 0.971
C[C@H](CO)N1C[C@H](C)[C@@H](CN(C)S(=O)(=O)c2ccc(F)cc2)Oc2cc(C#Cc3ccncc3)ccc2S1(=O)=O | inactive: 1.03
CC[C@@H](C[C@@H](O)[C@@H](C)[C@H]1CC[C@H]2C3=CC(=O)[C@H]4[C@H](C)[C@@H](OC(=O)c5ccccc5)CC[C@]4(C)[C@H]3CC[C@]12C)C(C)C | inactive: 0.967
Cc1ccc(S(=O)(=O)N(C)C[C@H]2Oc3ccc(NC(=O)Cn4cnnn4)cc3C(=O)N([C@H](C)CO)C[C@H]2C)cc1 | inactive: 1
COc1ccc2c3c(n(c2c1)C)[C@H](CO)N(C[C@]13CCN(CC1)C(=O)CN1CCOCC1)C(=O)Nc1ccc(cc1)F | inactive: 0.984
C[C@H](CO)N1C[C@H](C)[C@H](CN(C)Cc2ccc3c(c2)OCO3)Oc2cc(C#CCN(C)C)ccc2S1(=O)=O | inactive: 1.01
O=C(NO)c1cn(-c2cccc(C(=O)N3CCC4(CC3)C(=O)NCN4c3ccccc3)c2)nn1 | active: 0.0368
C[C@H](CO)N1C[C@H](C)[C@@H](CN(C)CC2CC2)Oc2c(NC(=O)Nc3cccc4ccccc34)cccc2C1=O | inactive: 1.01
C[C@@H]1CN([C@@H](C)CO)C(=O)Cc2cc(NS(=O)(=O)c3cn(C)cn3)ccc2O[C@H]1CN(C)S(C)(=O)=O | inactive: 0.986
O=C(O)c1ccnc(N2CC(O)(c3ccc(OCc4c(-c5c(Cl)cccc5Cl)noc4C4CC4)cc3Cl)C2)c1 | inactive: 1.02
C=C1C(=O)N(OCC)c2ccccc2[NH+]1[O-] (configuration not stated) | inactive: 1
C[C@@H]1CCCCO[C@@H](CN(C)S(=O)(=O)c2ccccc2)[C@@H](C)CN([C@H](C)CO)C(=O)c2cc(NC(=O)Nc3ccc(F)cc3)ccc2O1 | inactive: 1.02
COc1ccc(S(=O)(=O)Nc2ccc3c(c2)C(=O)N([C@@H](C)CO)C[C@@H](C)[C@@H](CN(C)C(=O)CCC(F)(F)F)OCCCC[C@@H](C)O3)cc1 | inactive: 0.986
COc1ccc(S(=O)(=O)Nc2ccc3c(c2)C(=O)N([C@H](C)CO)C[C@H](C)[C@H](CN(C)CC2CC2)O3)cc1 | inactive: 1.01
